Some of the results follow.
The sequences below were run on PfSIP2 AP2 domain 1 (GST-tagged) (assay: gcPBM binding intensity (ln(normalized median fluorescence intensity)); higher = stronger DNA binding).
Procedure, shortened: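 Plasmodium falciparum DNA-binding domains carrying a GST tag were expressed in E. coli and applied for 1 h, at about 25 μg on average, to an Agilent 4 × 180k array. The array held primer-extended double-stranded 36-bp intergenic genomic probes together with negative controls, and binding took place in 1× PBS with 1% milk, 0.2 mg/ml BSA, 0.5% salmon testes DNA and 0.03% Triton X-100. An Alexa488 anti-GST antibody detected bound protein, and the array was scanned at 488 nm. Binding intensity is taken as the highest Masliner-normalised natural-log median intensity across replicate spots of either probe orientation.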

Sequence | gcPBM binding intensity (ln)
ACCTTTTGGATTATATGTACATATATATATATATAT [XGTACX_site2687] | 9.59
ATTAAAAATAAGAAGAGTACATATAATATATATACA [XGTACX_site3092] | 6.87
TTAAAAAGAAAGTTCACACACATATATATGACGGAA [CACACA_site2602] | 7.12
CATAGAATAATTTATTGTACGTGCATGCTATTTTTT [XGTACX_site8984] | 7
TATACATTTTTATAAAGTACACAAAAATAAATATAA [XGTACX_site1647] | 7.13
ATTAAATATATGATGTGTACATATTCGTGTATGTTT [XGTACX_site2141] | 7.06
AAACAGAATACATATACACACATACAAAAAAGTGCA [CACACA_site8235] | 7.52
AAAATAAATTTTTATGTTATATATACAATTTCTCTA [CACACA_negctrl_site1760] | 6.73
TATAATATTTATATAACACACATATATATTTATTTA [CACACA_site280] | 6.92
AATGCTATCTTCTTATTTTTCATACACAACATGAAC [CACACA_negctrl_site1809] | 7.16
TTATGAAATAGAATAACACACATATTTATATATGTG [CACACA_site2050] | 6.73
TATTTTTTTAAAAATACACACATAAAATCATGAAAA [CACACA_site1085] | 7.14
TTTTTTTATATTTTTAGTACACATTGGTATATATAT [XGTACX_site4114] | 7.53
ATATATATATGTCAAAGTACTAAAAATATATACATA [XGTACX_site3397] | 8.76
TATCACATATTATGATGTACAAGGATTCTGACTAAT [XGTACX_site1196] | 6.75
TTTATTTATCTGAACACATGCAGACAAATAACATAT [TGCATGCA_site929] | 6.91
ATTATATATAAACACACACACATGCATGCACATATA [CACACA_site4237] | 8.9
CATAAACTTTATAACACACACTTATAAATATAAATA [CACACA_site6646] | 7.04
GTTATAAAATATGGCACACAAAATGTAAGTAAATGA [CACACA_site1458] | 7.23
ATATATTTTGTTATGGTGCGTAAGAAATATATTCTT [GTGCAC_site9825] | 8.74
GATCTTTAAATTTATTGTACATAAATGTATATGTTA [XGTACX_site1107] | 7.04
TATATATTATAAAATAGTACACAGAATTTAAATATA [XGTACX_site100] | 6.95

Sequence | gcPBM binding intensity (ln)
TATATATAGAAACACACACACATATATATATATTTT [CACACA_site2540] | 7.1
TTGTTGATTGTTATTTATCATTAGATGTAAAATATG [CACACA_negctrl_site927] | 6.99
TCTTTTAAACAGTACACACACACATATATATATATA [CACACA_site924] | 9.59
AATATTTTTTTATAAACACACATATAAATAAATATA [CACACA_site7622] | 6.99
ATATCTATAATAAACACACACATATACCTATAGGTA [CACACA_site7596] | 7.02
GGGCATATAATATAAAGTACAGGACTATAAAAATAT [XGTACX_site4481] | 7.24
TATTATATGTATTGCACACCTTCAACAACTACTTCT [CACACA_site655] | 7.39
ATTGTGCACTTATATGCACACATTTTAGTTTTTTTT [CACACA_site2028] | 10.6
GAACAATATATTTGCACACAAAAAATATATATTTAT [CACACA_site3317] | 7.35
GGATAAAAAATATGTACACACATATAGATATCTATA [CACACA_site2693] | 7.04
GTTTACATCATTCTGGTGCAAAAAAAAAAAAAAATA | 9.86
TAGATTTAAAAAAAAAAAAAATTTTTTTTTTTTTTT [TGCATGCA_negctrl_site593] | 7.14
GAATACTCATTTCTTTGTACATATATATGTGTATTT [XGTACX_site6411] | 7.07
ATACAAGTATTAATTACACACTCAAAAAGAAAAAAC [CACACA_site5287] | 6.96
TTCATATGGAATAAAAGTACGTATTAAAACAATTTT [XGTACX_site8742] | 6.9
CATATAAACAATAACACACACCTAGGTACATGGAAA [CACACA_site4615] | 6.99
CTTTTTAATTTATCGACACACGCATGAATAGAAATT [CACACA_site9112] | 6.94
AAAGCAAATAATAAGTGTACGGGTCAATATATGCGT [XGTACX_site1519] | 7.08
GTGTACAAAATATGGTAATAAAGTAGTTACATGAAT [CACACA_negctrl_site1775] | 7.23
CTAAATTGTTAATAGAGTACATTTGTATAATATAAG [XGTACX_site594] | 6.93
AATAAAATATAATAATTAATATATATATATATATAA [GTGCAC_negctrl_site457] | 7.48
TTATGTTGTAAATACACACATACATATACATACACA [CACACA_site733] | 7.05

From the supplement of paper PMC11417369
